This note sets out measurements from the supplement of paper PMC11417369.

± gives the standard deviation of the averaged measurements. This is one part of the list.

This test deals with PfAP2-EXP AP2 domain (GST-tagged). The experiment in a line: gcPBM binding intensity (ln(normalized median fluorescence intensity)); higher = stronger DNA binding. In a few lines: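 An Agilent 4 × 180k array of primer-extended double-stranded 36-bp intergenic genomic probes, with negative controls, was incubated for 1 h with GST-tagged P. falciparum DNA-binding domains expressed in E. coli. Alexa488 anti-GST antibody detected bound protein, scanned at 488 nm. Binding intensity is the highest Masliner-normalised natural-log median intensity across replicate spots of either probe orientation.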
Take “TTTCTTTAATATATAGTGCATGTAAATTTTACAATA [GTGCAC_site9679]”: the “gcPBM binding intensity (ln)” value came to 8.96 ± 0.2.

“AAAAAAAAAAACAGTTGTACATTTATTTATATATTA [XGTACX_site217]”: the “gcPBM binding intensity (ln)” value was determined as 8.15 ± 0.35.

For “AAAATAAGGACTGTTGTGCACTGGATTTGTGGTTAC [GTGCAC_site9830]”, the “gcPBM binding intensity (ln)” value was 9.04 ± 0.22.

“AAAATAAAATTTACTTGTACTAAAGGGATACGCGCA [XGTACX_site1453]”: the “gcPBM binding intensity (ln)” value came to 8.59 ± 0.26.

For “AATTAATATTTAAATTGTACATGAACATTTTAATGT [XGTACX_site462]”, the “gcPBM binding intensity (ln)” value turned out to be 8.24 ± 0.38.

On to “TAAATATTATTTATATGTACTGATATATTAAATAAA [XGTACX_site3446]”, for which the “gcPBM binding intensity (ln)” value worked out at 8.03 ± 0.37.

Take “AATATAAATTTATATTGTACATATTTTATTATATGT [XGTACX_site905]”: the “gcPBM binding intensity (ln)” value came out at 8.45 ± 0.39.

Consider “GTCACAAAATAAATTAAACACACAACATCATATATG [CACACA_site8182]”, for which the “gcPBM binding intensity (ln)” value stood at 8.69 ± 0.53.

On to “GTGTATCAATATGTAGGTACGTAAATATAGATAATA [XGTACX_site5526]”, for which the “gcPBM binding intensity (ln)” value was determined as 8.78 ± 0.41.

In the case of “ATTAATATGAATAAATGTACAAATGAATGATTACAT [XGTACX_site6044]”, the “gcPBM binding intensity (ln)” value was 8.55 ± 0.59.

Turning to TAATATAATATATAGGTGCAATATTAACAAAAATTT, the “gcPBM binding intensity (ln)” value worked out at 8.63 ± 0.085.

Turning to “ATAATGTGTTAGGCGTGTACACAATTGTATGGTTTA [XGTACX_site2377]”, the “gcPBM binding intensity (ln)” value was determined as 8.88 ± 0.23.

For the sequence “AAATAAAATCATAATGTGCGCATATAAATTTGTAGG [GTGCAC_site9662]”, the “gcPBM binding intensity (ln)” value turned out to be 9.03 ± 0.39.

Turning to “AAGGTAGATATATTTAGTACGTAATTTTTTTTTTTT [XGTACX_site7288]”, the “gcPBM binding intensity (ln)” value was determined as 8.28 ± 0.43.

For the sequence “ATATATATATATGAAAGTACACATCTATTTTTTCTT [XGTACX_site6059]”, the “gcPBM binding intensity (ln)” value came to 10 ± 0.28.

Take “CAAACAAATTGTGAAACACACATATATATATATATA [CACACA_site2001]”: the “gcPBM binding intensity (ln)” value came out at 10.2 ± 0.29.

With “AACGTATTATTTATCTGTACAAAATAATAACGTATT [XGTACX_site813]”, the “gcPBM binding intensity (ln)” value turned out to be 8.48 ± 0.42.

With “TAAATAAAAATACAGTGTACTTTTTTCTATTTAAAA [XGTACX_site3288]”, the “gcPBM binding intensity (ln)” value was found to be 8.09 ± 0.23.

“ATCCAAATTAATAATAGTACTTTTAAGTCCTATGTA [XGTACX_site2452]”: the “gcPBM binding intensity (ln)” value was 8.16 ± 0.3.

As for “TTTTGTTTTTTCAATGTGCACTTAGGATGTTTTTAT [GTGCAC_site9565]”, the “gcPBM binding intensity (ln)” value was found to be 9.01 ± 0.29.

As for “GATATAAACGTATATGTACATATATATATATATATA [GTGCAC_negctrl_site186]”, the “gcPBM binding intensity (ln)” value was found to be 10.2 ± 0.41.

Consider “TTGGAGTTCATATGTGGTACACATTTAAATATATTT [XGTACX_site5582]”, for which the “gcPBM binding intensity (ln)” value stood at 8.49 ± 0.32.

“ATCATGGAAAAAACAAATGGGCTACATTACCTTTTG [GTGCAC_negctrl_site487]”: the “gcPBM binding intensity (ln)” value came to 8.34 ± 0.43.

For the sequence “ATAATAAATGTCTTCAATGAAGTGGAAATGCTGTTA [TGCATGCA_negctrl_site238]”, the “gcPBM binding intensity (ln)” value worked out at 8.63 ± 0.37.

As for “ATATATACATAGAATTGTACATAATTTATGTTCATT [XGTACX_site7426]”, the “gcPBM binding intensity (ln)” value was found to be 8.28 ± 0.34.

With “TATATACAAATATGTACACACATTACAGATGTACAT [CACACA_site6586]”, the “gcPBM binding intensity (ln)” value came to 8.54 ± 0.26.

As for “TAGAAAAAATAAAATAGTACACATCCAAAAAAAAAA [XGTACX_site7829]”, the “gcPBM binding intensity (ln)” value worked out at 8.56 ± 0.36.

With “CCAAACAAAAAAAAAAGTACATAAAACACCTATTTG [XGTACX_site5645]”, the “gcPBM binding intensity (ln)” value was determined as 8.68 ± 0.43.

On to “AATATATAAATATATACACACAAAAACATATATATA [CACACA_site1318]”, for which the “gcPBM binding intensity (ln)” value was 8.63 ± 0.35.

On to “ATAATTAGGGTGTATTTCATTTCATTTCATTTTATT [CACACA_negctrl_site1418]”, for which the “gcPBM binding intensity (ln)” value came to 8.74 ± 0.51.

As for “TTTTATTCATCATATTGTACATTCTTGTATTTATAG [XGTACX_site8534]”, the “gcPBM binding intensity (ln)” value is 8.71 ± 0.36.

In the case of “ATATACTTACATATTACACACAATATTTTTAAATGG [CACACA_site5916]”, the “gcPBM binding intensity (ln)” value is 8.47 ± 0.49.

On to “TTGTATATACTATACACACACATACATACATACATA [CACACA_site814]”, for which the “gcPBM binding intensity (ln)” value was 8.62 ± 0.39.

In the case of “TATTTATAATTAAATACACACATATATTATAGATTT [CACACA_site6435]”, the “gcPBM binding intensity (ln)” value amounted to 8.2 ± 0.38.

As to “CTTTTGCCCAAAAAGGTACACACCACAAAGTACATA [CACACA_site8169]”, the “gcPBM binding intensity (ln)” value worked out at 8.89 ± 0.54.

In the case of “ACCCATATTCTTTTTACACACTTGAATAAAAAATAT [CACACA_site4797]”, the “gcPBM binding intensity (ln)” value worked out at 8.59 ± 0.36.

In the case of “GAGATATAAAAGTGTACACATATTGTTATCCATATT [CACACA_site5441]”, the “gcPBM binding intensity (ln)” value came to 8.61 ± 0.26.

As to “TCCCTGATGTTATTTAATATACCATAAAAAAAAAAA [CACACA_negctrl_site1472]”, the “gcPBM binding intensity (ln)” value amounted to 8.21 ± 0.4.

Take “AATAAAAAATAAAAAAGTACATGATGAAAAGGTTTA [XGTACX_site7615]”: the “gcPBM binding intensity (ln)” value worked out at 8.72 ± 0.44.

Regarding “TATATATATATATATACATGCATACAATTTTATGAG [TGCATGCA_site466]”, the “gcPBM binding intensity (ln)” value is 10.2 ± 0.29.

For the sequence “ATCTCAAATATAATAAATTATTAGGTATATATATAT [CACACA_negctrl_site1828]”, the “gcPBM binding intensity (ln)” value came to 9.89 ± 0.16.

For “CACACTTTATAATGTTGTACGATACATTATACCAAA [XGTACX_site941]”, the “gcPBM binding intensity (ln)” value stood at 8.65 ± 0.38.

For the sequence “TCTTGTTATAATAATCAATATATGGGTATACTTATG [CACACA_negctrl_site1618]”, the “gcPBM binding intensity (ln)” value turned out to be 8.39 ± 0.44.

Turning to “AAAAGGATTTTTTATACACACACTAACTAATGTATA [CACACA_site2356]”, the “gcPBM binding intensity (ln)” value was found to be 8.23 ± 0.43.
